From ChEMBL document CHEMBL4888484, “Replenishing the malaria drug discovery pipeline: Screening and hit evaluation of the MMV Hit Generation Library 1 (HGL1) against asexual blood stage Plasmodium falciparum ,using a nano luciferase reporter read-out” (2022) come the findings set out here.

Each structure is given as a SMILES string. Hit rate of the full screen: of about 150,000 compounds, about 540 (0.36%) showed an effect of 50% or more. This is one part of the list.

The subject of the assay is Plasmodium falciparum. Put plainly: Primary screen in NF54 nanoGlo assay, in single point, at 2uM, 72h; a lower Z score goes with more inhibition. In kind it is functional, Erythrocyte. The conditions noted are these: timepoint 72 hour.
The % Inhibition is the change of the read-out against control, counted positive when it falls. For `CC(C)(C)CNC(=O)C(C)(C)NC(=O)Nc1cccc(C(F)(F)F)c1`, the “% Inhibition” value is -8% and the Z score is recorded as 1.27.
For `CN(C)C[C@]1(O)CCCN(C(=O)Nc2ccc(Oc3ccccc3)cc2)CC1`, in that order: -6% and 0.77.
With `Cc1cccc(NC(=O)Cn2c(=O)n(Cc3ccc(Cl)cc3)c(=O)c3ccccc32)c1C`, the “% Inhibition” value was found to be 4% and the Z score is given as -0.63.
For `O=C(NC[C@H]1COCCO1)c1cc(F)c[nH]1` the same measures were -11% and 1.42.
For `O=S(=O)(c1cncc(F)c1)N(Cc1ccco1)c1ccccn1` the same measures were -11% and 1.05.
For the molecule `Cc1nc(CNC(=O)c2coc(C3CC3)n2)no1`, the “% Inhibition” value amounted to 0% and the Z score is recorded as -0.06.
Take `CCn1cc(S(=O)(=O)N2CCC(c3noc(COCCOC)n3)CC2)cn1`: the “% Inhibition” value is on record as -4% and the Z score is on record as 0.51.
For `Cc1cc(NC(=O)NCCc2c(C)nn(C)c2C)n(-c2ccccn2)n1` the same measures were 1% and -0.08.
Consider `CC(Cn1cncn1)NC(=O)NC1CN(Cc2ccccc2)CC1C` (stereo not given), for which the “% Inhibition” value was -1% and the Z score is 0.12.
Take `CCc1oc(C(=O)N2CCN(c3ccc(C#N)nc3)CC2)cc1C`: the “% Inhibition” value came out at 0% and the Z score was determined as 0.05.
Take `CCOC(=O)N1CCC(Nc2nc(-c3ccccc3)no2)CC1`: the “% Inhibition” value is listed as -22% and the Z score was found to be 1.93.
Regarding `Cc1cc2occ(C(=O)NC[C@]3(O)CCS(=O)(=O)C3)c2cc1C`, the “% Inhibition” value was determined as 6% and the Z score is listed as -1.21.
For `COC[C@]1(C(=O)O)CCCN(C(=O)OC(C)(C)C)CC1`, in that order: -8% and 1.55.
For `CCc1cc(C(=O)Nc2ccccc2)c2c(C3CC3)nn(-c3ccccc3)c2n1`, in that order: 30% and -3.34.
As for `CCOC(=O)C(=O)N1CCN(c2nccc(-c3ccc4c(c3)OCO4)n2)CC1`, the “% Inhibition” value is -33% and the Z score was determined as 2.88.
For `CN1CN(c2cccc(C#N)n2)CC1=O` the same measures were -15% and 1.32.
On to `CC(C)Cc1nc([C@@H]2CCCNC2=O)n(CCO)n1`, for which the “% Inhibition” value is reported as -7% and the Z score was 0.98.
For `CCc1cccc(C(=O)NC2CCOC3(CCOC3)C2)c1O` (stereo not given) the same measures were 4% and -0.6.
Regarding `Cc1noc(C2CCN(CC(=O)N3CCC(C(=O)N(C)C(C)C)CC3)CC2)n1`, the “% Inhibition” value is reported as 3% and the Z score is given as -0.47.
For `Cn1ccc(NC(=O)Cn2ncc(=O)c3ccccc32)n1`, in that order: 8% and -1.42.
For `CO[C@H]1CCC12CCN(S(=O)(=O)c1ccc(C)cc1)CC2` the same measures were -8% and 1.08.
For `CC[C@H]1COCCN1C(=O)c1cc(CN(CC)CC)oc1-c1ccccc1` the same measures were -23% and 2.28.
In the case of `CC(=O)N1CCCN(CC(c2ccccc2)c2ccccc2)CC1`, the “% Inhibition” value is reported as -2% and the Z score came to 0.26.
For `CC(C)N(C)CC1CCN(C(=O)[C@@H](C(=O)O)C(C)(C)C)CC1`, in that order: -6% and 0.99.
For `CC(C)N1CCO[C@@H](CC(=O)NCCn2ccnn2)C1` the same measures were -11% and 2.3.
`COC(=O)c1ccc(-c2nc(CN3C(=O)c4ccccc4C3=O)c(C)o2)cc1`: the “% Inhibition” value stood at 2% and the Z score is given as -0.31.
For `NC(=O)CN1CCC(NC(=O)C2CCCC(C(F)(F)F)C2)CC1` (stereo not given) the same measures were -5% and 0.57.
For `COc1ccc(NC(=O)c2ccc(S(=O)(=O)Nc3ccc(C)c(C)c3)cc2)c(S(=O)(=O)N2CCCCC2)c1`, in that order: -11% and 1.46.
For `Nc1nc(CNC(=O)COC[C@H]2CCCCO2)cs1`, in that order: 0% and 0.05.
`CN(C)c1ccccc1NC(=O)Nc1cn[nH]c1`: the “% Inhibition” value was found to be 5% and the Z score is -0.53.
For `CN(CCCCc1ccccc1)C(=O)Nc1nncs1` the same measures were -7% and 1.25.
For `Cc1nc(-c2cnc3ccccn3c2=O)n(CCCO)n1`, in that order: -6% and 0.8.
On to `COc1cccc(CN2CC[C@H](Cc3nnc(CC(C)C)o3)C2)c1OC`, for which the “% Inhibition” value amounted to 8% and the Z score is -1.1.
In the case of `COc1cc(CC(=O)Nc2[nH]nc(-c3ccc(C)o3)c2C)ccn1`, the “% Inhibition” value is -10% and the Z score amounted to 1.28.
For `O=S(=O)(N1CCCCC1)N1CC2CCCC2C1` (stereo not given) the same measures were -9% and 0.98.
For `CCN(Cc1ccc(OC)c(F)c1)CC(O)COC1CCCc2ccccc21` (stereo not given), in that order: -11% and 1.25.
For `CCN(CC)CC(=O)N[C@@H](C)Cc1cnccn1` the same measures were -3% and 0.44.
Regarding `COc1ccccc1CNC(=O)c1ccc(Cn2c(=O)c3ccccc3n(Cc3ccc(F)cc3)c2=O)cc1`, the “% Inhibition” value is reported as -1% and the Z score amounted to 0.06.
For `Cc1ccc([C@@H]2Cn3nnc(C(=O)N4CCC(C(=O)NCC(C)C)CC4)c3CO2)cc1` the same measures were -23% and 2.14.
On to `Cc1cc(Cl)c2c(c1)[C@@H](N(Cc1nnc(C)o1)C1CC1)CCCO2`, for which the “% Inhibition” value is listed as -2% and the Z score stood at 0.26.
`N#Cc1ccc(OCCCN2CCC[C@H](Cn3cncn3)C2)cc1`: the “% Inhibition” value is on record as -10% and the Z score is given as 1.47.
For `COC(=O)c1ccc(N2CCC(C)CC2C)nn1` (stereo not given) the same measures were 3% and -0.3.
For `Cc1ccc(NCc2cnnn2C)c(C)n1`, in that order: -13% and 2.
`COCCc1ccnc(NC(=O)N2CCCS(=O)(=O)C[C@@H]2C)c1`: the “% Inhibition” value is -6% and the Z score stood at 1.16.
For `CN(CCn1cccn1)C(=O)CN1C[C@@H](Cc2ccccc2)CC1=O` the same measures were 12% and -2.03.
For `Nc1nc(CC(=O)NCc2ccccc2F)n[nH]1`, in that order: -11% and 1.96.
For `Cc1csc(Cn2nc3ccc(C(C)(C)C)nn3c2=O)n1`, in that order: -9% and 1.96.
As for `CO[C@H]1[C@@H]2CC[C@H]1CN(Cc1ccccc1C(=O)O)C2`, the “% Inhibition” value is listed as -4% and the Z score is recorded as 0.86.
As for `CCCS(=O)(=O)N1CCC[C@H]1c1noc(COCC)n1`, the “% Inhibition” value is recorded as -7% and the Z score was 0.92.
For `CO[C@H]1COC[C@@H]1NC(=O)c1sccc1Cl` the same measures were -9% and 1.78.
For `COc1ccc(CC(=O)N2CC[C@H](O)CC23CCC3)nc1`, in that order: -10% and 1.
For `CCOC(=O)c1c(S(=O)(=O)N2CCC(C(=O)NC(C)(C)C)CC2)c(C)n(C)c1C`, in that order: 0% and 0.05.
Take `O=C(O)C12CCC(C(=O)NCC3(C4(O)CCC4)CC3)(CC1)CC2`: the “% Inhibition” value was determined as 7% and the Z score is listed as -1.02.
For `C[C@@H](c1nc(COc2cccc(F)c2)n[nH]1)N1CCCCC1` the same measures were -11% and 2.09.
With `Cc1oc(-c2cc(F)cc(F)c2)nc1Cn1cccn1`, the “% Inhibition” value was -9% and the Z score was determined as 1.45.
For `COCc1nc(C)cc(N[C@@H](COC)C2CCOCC2)n1`, the “% Inhibition” value is listed as -2% and the Z score was 0.34.
For `CCc1cnccc1C(=O)NC1CC12CCOc1ccccc12` (stereo not given) the same measures were -17% and 1.78.
For `Cc1ccccc1OCC(=O)N[C@H]1CN(S(C)(=O)=O)C[C@@H]1C1CC1`, in that order: -7% and 1.23.
For `CCN1C[C@@H](c2ccccc2)CC2(CCN(c3cc(C)ncn3)CC2)C1`, in that order: -10% and 1.12.
Take `Cc1ccc(C)c(S(=O)(=O)NC[C@H](C)O)c1`: the “% Inhibition” value is listed as -5% and the Z score is recorded as 0.52.
For `COc1ccc(-c2cc(NC(=O)c3oc4cc(C)cc(C)c4c3C)on2)cc1OC`, the “% Inhibition” value is -1% and the Z score was found to be 0.1.
For `COCC[C@H]1CCCCN1C(=O)c1cn(CCC2CCCCC2)nn1`, in that order: -19% and 2.83.
For `COc1cc2c(cc1OC)CN(C(=O)[C@@H](C)Cn1cncn1)CC2` the same measures were 4% and -0.52.
For `CCOc1cc(C(=O)N2CCO[C@@H](COc3ccc(Cl)c(C)c3)C2)ccc1OC`, in that order: 3% and -0.38.
Regarding `CC1(C)CN(C(=O)Cn2cnc(C#N)n2)CC2(CCCC2)O1`, the “% Inhibition” value is on record as -9% and the Z score is reported as 1.14.
For `COc1ccc(C(=O)N2CCC3(CC2)NC(=O)c2cc(F)ccc2N3C)c(OC)c1`, in that order: -2% and 0.22.
For `CCCCn1c(N)c(N2CCOCC2)c(=O)n(CC(=O)Nc2cccc(F)c2)c1=O`, in that order: 8% and -1.22.
For `COc1ccc(S(=O)(=O)N[C@H]2CCOC2=O)c2c1CCCC2`, in that order: 4% and -0.56.
As for `CCc1nc(OC)ccc1NC(=O)N1CCC[C@H]1c1cn(C)nc1C`, the “% Inhibition” value was -3% and the Z score was 0.62.
For `NS(=O)(=O)c1ccc(CNC(=O)c2cc(-c3cccnc3)nc3ccccc23)cc1`, in that order: -5% and 0.81.
For `Cn1ccnc1-c1nnc(NS(=O)(=O)c2ccc(Cl)cc2)o1` the same measures were -4% and 0.48.
For `Cc1ccc(N2CCN(C(=O)c3cc4n(n3)C[C@@H](c3ccc(Cl)cc3)OC4)CC2)cc1` the same measures were -3% and 0.43.
For the molecule `CC(C)N1C(=O)CN(CN2CCC[C@H]2c2ccsc2)C1=O`, the “% Inhibition” value is recorded as -11% and the Z score was found to be 1.57.
For `CCO[C@H]1COC[C@@H]1NC(=O)c1cc(OC)ccn1` the same measures were 6% and -0.71.
Turning to `NC(=O)CCN1CCc2onc(-c3cccc4ccccc34)c2C1`, the “% Inhibition” value turned out to be 16% and the Z score is reported as -2.14.
For `COc1ccc(OC)c(-c2cc(-c3cccnc3)c(C#N)c(N)n2)c1` the same measures were 3% and -0.38.
For `O=C1NC(c2ccccc2)=NC12CCN(Cc1c(F)cccc1F)CC2` the same measures were 40% and -4.56.
For `COc1ccc(C(=O)N2CC[C@H]3NC(=O)N(c4ccc(Oc5ccccc5)cc4)C(=O)[C@H]32)cc1`, in that order: 34% and -3.88.
`O=C(Cc1csc(-c2ccoc2)n1)N1CCC[C@@H]1CO`: the “% Inhibition” value is -16% and the Z score was found to be 1.78.
For `Cc1ccc2c(c1)c(C(=O)N[C@@H]1[C@@H]3CCO[C@@H]3[C@H]1N(C)C)nn2C`, in that order: -20% and 2.92.
For `CC(C)CC(C)CC(=O)Oc1ccc(CC2NC(=O)NC2=O)cc1` (stereo not given), in that order: -1% and 0.09.
For `CCC(NC(=O)c1cc(Cl)cn1C)C(O)C(F)(F)F` (stereo not given), in that order: -15% and 1.35.
With `COC(=O)[C@H]1CCc2nnc(COc3cc(C)ccc3C(C)C)n2C1`, the “% Inhibition” value was -15% and the Z score was found to be 2.39.
Regarding `Cc1nc2ccc(NC(=O)c3cnccn3)cc2s1`, the “% Inhibition” value is -4% and the Z score is given as 0.32.
For `Cn1cc([C@@](C)(O)CNC(=O)NCc2ccc3c(c2)CCC3)cn1` the same measures were -6% and 0.71.
